Laboratory results: PubChem BioAssay AID1460 (National Center for Advancing Translational Sciences (NCATS), 2008)
The whole screen tested about 270,000 compounds, of which about 5,800 (2.1%) were called active. This list was built around the results that the source calls inconclusive (neither active nor inactive); the mix of calls is not that of the screen. Calls follow the shape of the dose curve; as a rule, active = well fitted inhibition curve with a large enough effect; inconclusive = small, poorly fitted or top-dose-only effect; inactive = flat fitted curve, though single readings scatter. A potency beside an inconclusive call is a rough fit, not a confirmed value.

What follows are compounds tested against Microtubule-associated protein tau (Homo sapiens) (UniProt P10636) (assay: qHTS for Inhibitors of Tau Fibril Formation, Thioflavin T Binding). Settings: recombinant tau K18 P301L (four-repeat tau fragment), heparin-induced fibrillization, ThT fluorescence; series mostly up to 57.4 µM; activity, negative = inhibition: at the top concentration.
In short: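 Heparin-induced (20 uM) aggregation of recombinant human K18 P301L tau, 15 uM unlabeled with 0.24 uM labeled, pH 7 acetate buffer, 6 hr at 37 C with compound. Fibrils quantified by 30 uM ThT fluorescence after 1 hr ambient incubation.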
% is scaled to controls: 0 for no effect and ±100 for the full control effect; potency is read from the fitted curve at half-maximal effect; tags tell the direction and shape of the fitted curve.
Also: nearly all actives have a fitted effect of over 55% in size.

Sequence of UniProt P10636 (P10636 whole entry, looked up, the tested form may be a part): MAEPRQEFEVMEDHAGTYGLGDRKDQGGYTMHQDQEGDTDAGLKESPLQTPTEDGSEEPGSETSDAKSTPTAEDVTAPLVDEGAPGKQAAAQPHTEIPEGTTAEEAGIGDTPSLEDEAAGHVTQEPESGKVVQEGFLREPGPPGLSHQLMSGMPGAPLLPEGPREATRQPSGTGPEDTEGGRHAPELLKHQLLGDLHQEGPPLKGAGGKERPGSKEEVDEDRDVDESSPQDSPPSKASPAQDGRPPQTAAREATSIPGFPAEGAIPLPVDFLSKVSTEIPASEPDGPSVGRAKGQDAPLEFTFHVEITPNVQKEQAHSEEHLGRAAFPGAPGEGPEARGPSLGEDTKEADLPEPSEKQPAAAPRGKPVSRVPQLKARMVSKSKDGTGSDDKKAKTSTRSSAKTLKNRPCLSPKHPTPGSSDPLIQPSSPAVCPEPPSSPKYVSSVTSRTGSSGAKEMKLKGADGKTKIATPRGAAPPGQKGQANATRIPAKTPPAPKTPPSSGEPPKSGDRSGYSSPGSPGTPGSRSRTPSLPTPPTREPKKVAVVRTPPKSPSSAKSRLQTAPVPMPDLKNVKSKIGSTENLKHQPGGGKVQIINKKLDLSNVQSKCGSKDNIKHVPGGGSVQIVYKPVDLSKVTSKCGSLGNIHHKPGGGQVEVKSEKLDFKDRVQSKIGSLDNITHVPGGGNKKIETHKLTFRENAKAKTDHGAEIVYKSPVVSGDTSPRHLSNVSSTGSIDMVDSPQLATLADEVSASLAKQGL

Row | Compound | Potency | activity, negative = inhibition
1 | O=C(CSC1=Nc2ccccc2C2=NC(CC(=O)NCc3ccco3)C(=O)N12)NCC1CCCO1 (stereo not drawn) | inconclusive: 28.2 µM [inhibitor, partial curve] | –
2 | COc1cc(OC)c2ccc(=O)oc2c1C(CCN1CCN(c2ccccc2)CC1)c1ccc(N(C)C)cc1 (stereo not drawn) | inconclusive: 31.6 µM [inhibitor, single point] | –
3 | CCOC(=O)/C(=C\c1cccnc1)C(=O)c1cc(C(C)=O)c(Nc2ccccc2)s1 | inconclusive: 7.94 µM [inhibitor, partial curve] | –
4 | O=C(NC(=S)Nc1ccccc1N1CCCC1)c1ccccc1[N+](=O)[O-] | inconclusive: 28.2 µM [inhibitor, single point] | –
5 | COc1cccc(C(=O)Nc2ccccc2C(=O)OCc2cc(=O)n3nc(C4CC4)sc3n2)c1 | – | inactive: 3.28%
6 | Cc1ccc(C(=O)c2cn(CC(=O)NC3CCCCC3)c3nc(C)ccc3c2=O)cc1 | inconclusive: 25.1 µM [inhibitor, partial curve] | –
7 | COc1ccccc1N1CC(C)(C)C(=O)N(C(=O)c2ccc(Cl)cc2)C1=S | inconclusive: 11.2 µM [inhibitor, partial curve] | –
8 | c1ccc(N=Nc2cn[nH]c2-c2ccco2)cc1 | inconclusive: 15.8 µM [inhibitor, partial curve] | –
9 | c1cnc2c(OCc3cn4cccnc4n3)cccc2c1 | inconclusive: 44.7 µM [inhibitor, single point] | –
10 | CCOC(=O)c1cnc(SCC(=O)Nc2sc(C)c(C)c2C#N)nc1N | – | inactive: 6.82%
11 | COc1cccc2cc(-c3nc4ccccc4o3)c(=O)oc12 | inconclusive: 3.55 µM [inhibitor, full curve] | –
12 | CN1CCc2nc(SCc3ccc(C(C)(C)C)cc3)c(C#N)cc2C1 | inconclusive: 44.7 µM [inhibitor, single point] | –
13 | COc1ccc(-c2nc(CSCC(=O)N3CCN(c4cccc(C)c4C)CC3)c(C)o2)cc1OC | inconclusive: 12.6 µM [inhibitor, partial curve, poor fit] | –
14 | O=[N+]([O-])c1ccc2nc(-c3ccccc3)oc2c1 | inconclusive: 15.8 µM [inhibitor, partial curve] | –
15 | Cc1ccc2nc(-c3ccccc3F)c(Nc3ccc(Cl)cc3)n2c1 | – | inactive: -15.9%
16 | CC(=O)N(Cc1ccc(F)cc1)c1cccc(C)c1C | – | inactive: -6.88%
17 | CC(=O)c1ccc(NC(=S)NC(C)c2ccc(Cl)cc2Cl)cc1 (stereo not drawn) | – | inactive: 9.26%
18 | CCC(=O)c1ccc(OCC(O)Cn2nc(C)c(C(C)=O)c2C)cc1 (stereo not drawn) | inconclusive: 11.2 µM [inhibitor, partial curve] | –
19 | COc1ccc(-c2nc3c4ccccc4n(CC(=O)N4CCN(c5ccccc5OC)CC4)c(=O)n3n2)cc1 | inconclusive: 28.2 µM [inhibitor, single point] | –
20 | CCN(CC)CCCNC(=O)CN1C(=O)CCn2nc(-c3cn(C)c4ccccc34)cc21 | – | inactive: 6.14%
21 | Cc1[nH]c2ccccc2c1C(=O)CSC(=S)N(C)C1CCCCC1 | – | inactive: -13.7%
22 | O=C1Nc2ccccc2/C1=C/c1cnc(-c2ccccc2)[nH]1 | inconclusive: 0.794 µM [inhibitor, full curve] | –
23 | CCN(CC)S(=O)(=O)c1ccc(N2CCOCC2)c(NC(=O)c2cc(=O)[nH]c3ccccc23)c1 | – | inactive: 4.45%

Row | Compound | Potency | activity, negative = inhibition
24 | COc1ccc2oc(=O)c(-c3csc(-c4ccc(Br)cc4)n3)cc2c1 | – | inactive: 6.29%
25 | Brc1cc2[nH]cnc2c2ccccc12 | inconclusive: 17.8 µM [inhibitor, partial curve] | –
26 | Cc1csc(NC(=O)CCCSc2nc3ccccc3s2)n1 | inconclusive: 39.8 µM [inhibitor, single point] | –
27 | Cc1ccccc1/C=N/Nc1ccnc2cc(Cl)ccc12 | inconclusive: 1 µM [inhibitor, full curve] | –
28 | CCCn1c2ccccc2c2nnc(SCc3[nH]c(=O)[nH]c3C(=O)CCCCC(=O)OCC)nc21 | inconclusive: 15.8 µM [inhibitor, single point] | –
29 | COc1cc(O)c2c(c1)OC(c1ccc(O)cc1)CC2=O (stereo not drawn) | inconclusive: 5.62 µM [inhibitor, single point] | –
30 | CC1=C(/C=C/C(C)=C/C=C/C(C)=C/C(=O)O)C(C)(C)CCC1O (stereo not drawn) | inconclusive: 22.4 µM [inhibitor, partial curve] | –
31 | C(=N\NC(=Nc1ccccc1)c1ccccn1)/c1ccccn1 | inconclusive: 39.8 µM [inhibitor, single point] | –
32 | Cc1cccc(CSCCNC(=O)CCSc2ccccc2)c1 | – | inactive: -17%
33 | CCOC(=O)c1sc(NC(=O)c2cc(-c3ccccc3)nc3ccccc23)c(C#N)c1C | inconclusive: 8.91 µM [inhibitor, partial curve] | –
34 | COc1ccccc1-n1ncc2c(=O)[nH]c(SCC(=O)Nc3ccc(Cl)cc3)nc21 | – | inactive: 3.46%
35 | O=C1C=C(O)c2c(O)cccc2C1=O | inconclusive: 14.1 µM [inhibitor, partial curve] | –
36 | COc1cc(-c2nc(Cn3nnc(C(=O)Nc4ccccc4)c3C)c(C)o2)cc(OC)c1OC | inconclusive: 28.2 µM [inhibitor, single point] | –
37 | Cc1c(C)c2c(cc(C)c3c(-c4ccccc4)coc32)oc1=O | – | inactive: -18.2%
38 | O=C(Cc1cccs1)NC1CC(=O)N(c2cccc(F)c2)C1 (stereo not drawn) | – | inactive: -3.72%
39 | C=CCSc1nc(N2CCOCC2)c2c(c1C#N)CC(C)(C)N(C)C2 | inconclusive: 22.4 µM [inhibitor, single point] | –
40 | Cc1ccc(NC(=O)Nc2ccnc(-c3cccnc3)n2)cc1 | inconclusive: 11.2 µM [inhibitor, single point] | –
41 | N=C1SC(CC(=O)Nc2ccc([N+](=O)[O-])cc2)C(=O)N1c1ccccc1 (stereo not drawn) | inconclusive: 14.1 µM [inhibitor, partial curve] | –
42 | COc1ccc(/C=N/n2cnc3c([nH]c4ccc(F)cc43)c2=O)cc1CN1CCCC1 | inconclusive: 1.41 µM [inhibitor, full curve, poor fit] | –
43 | CCN(CC)c1cc(C)c2ccccc2n1 | – | inactive: -1.14%
44 | COc1ccc(C2(Nc3cccc(C(=O)O)c3C)C(=O)c3ccccc3C2=O)cc1 | – | inactive: 1.6%
45 | CN(C)c1ccc(C(=O)n2nnc3ccccc32)cc1 | inconclusive: 10 µM [inhibitor, partial curve] | –
46 | O=C1OC(c2ccccc2)=C/C1=C/c1cccs1 | active: 3.16 µM | –

Row | Compound | Potency | activity, negative = inhibition
47 | COc1ccc(S(=O)(=O)N(CC(=O)NCCC(C)C)c2ccccc2)cc1OC | – | inactive: -4.02%
48 | CC(C)(C)c1ccc(C(=O)NCCc2csc3nc(-c4ccccc4F)nn23)cc1 | – | inactive: -7.22%
49 | COc1cc(NS(=O)(=O)c2ccc(NC(=O)CSC3=NCCS3)cc2)nc(OC)n1 | inconclusive: 28.2 µM [inhibitor, partial curve] | –
50 | Cc1cccc(-n2nnnc2SCC(=O)c2cc(C)n(CC3CCCO3)c2C)c1 (stereo not drawn) | inconclusive: 35.5 µM [inhibitor, single point] | –
51 | O=C(CNCc1ccccc1Cl)Nc1ccc2c(c1)OCCO2 | – | inactive: -14.4%
52 | CCCn1c2c(c(O)c(C(=O)Nc3ncccc3O)c1=O)CCCC2 | inconclusive: 22.4 µM [inhibitor, single point] | –
53 | COc1cccc(-c2nc(COc3ccc(Cl)cc3Cl)no2)c1 | inconclusive: 7.94 µM [inhibitor, partial curve] | –
54 | O=C(CS(=O)(=O)c1cccc2nsnc12)Nc1ccccc1 | – | inactive: -3.58%
55 | CCn1c(C)nc2cc(C(=O)N/N=C(\C)c3ccc(OC)cc3O)ccc21 | inconclusive: 1.78 µM [inhibitor, full curve, poor fit] | –
56 | Cc1ccc(/C=C2/CCc3c([nH]c4ccccc34)C2=O)cc1 | inconclusive: 3.55 µM [inhibitor, partial curve] | –
57 | CCN(CC)c1ccc(/C=N/NC(=O)C(O)(c2ccccc2)c2ccccc2)o1 | inconclusive: 31.6 µM [inhibitor, single point] | –
58 | Cc1ccc(OCC(=O)N(c2ccc(C)cc2)S(=O)(=O)c2ccc(Cl)cc2)cc1 | inconclusive: 11.2 µM [inhibitor, partial curve, poor fit] | –
59 | Cn1cc(/C=C(\C#N)C(=O)Nc2ncc(Cc3cccc(Cl)c3)s2)c2ccccc21 | inconclusive: 7.94 µM [inhibitor, full curve] | –
60 | COc1ccc(-c2nc(N)n(S(=O)(=O)c3ccc(C)cc3)n2)cc1 | inconclusive: 0.0562 µM [inhibitor, full curve, poor fit] | –
61 | O=C(NC1=NCCS1)c1cccs1 | inconclusive: 22.4 µM [inhibitor, single point] | –
62 | O=C(Nc1ccc(NC(=O)c2ccco2)cc1)c1ccc2c(c1)OCCO2 | inconclusive: 0.282 µM [inhibitor, full curve, poor fit] | –
63 | N=C1C(c2ccccc2)=C(O)CN1c1cccc(S(=O)(=O)NCc2ccco2)c1 | – | inactive: 4.09%
64 | COc1ccc(C(=O)Nc2ccc(-c3ccc(C)o3)cc2)cc1S(=O)(=O)N1CCOCC1 | inconclusive: 3.16 µM [inhibitor, full curve] | –
65 | CCn1cnc2sc(C(=O)N(Cc3ccc(N(C)C)cc3)Cc3ccco3)c(C)c2c1=O | inconclusive: 35.5 µM [inhibitor, partial curve] | –
66 | COc1ccc(N(C(=O)CCl)C(C)(C(=O)Nc2c(C)cccc2C)c2ccccn2)cc1 (stereo not drawn) | inconclusive: 12.6 µM [inhibitor, partial curve] | –
67 | Cc1cc(C)c2oc(C(=O)Nc3ccc(S(=O)(=O)N4CCCCC4)cc3)cc(=O)c2c1 | inconclusive: 7.94 µM [inhibitor, full curve, poor fit] | –
68 | Nc1ccc(-n2cnc3cc([N+](=O)[O-])ccc32)cc1 | inconclusive: 15.8 µM [inhibitor, partial curve, poor fit] | –
